Measured values: article PMC10711660, “An extended Tudor domain within Vreteno interconnects Gtsf1L and Ago3 for piRNA biogenesis in Bombyx mori” (The EMBO Journal, 2023)
No constants are given. Whether binding was seen depends on the method and setting. Binding seen in cells or lysates may run through a third protein. Some results given as binding are weak or reduced against the parent protein; the word gives no strength. For part of these data: Where a sequence is shown, tags or fusion partners need not be part of it. Blank lines part the entries; values can stand above or below the binder they belong to.

Columns and labels:
[1] = target: T1, endogenous BmAgo3 (Bombyx mori (endogenous in BmN4)) (UniProt A9ZSZ2); test: co-IP; antibodies to endogenous BmAgo3, Siwi or BmVreteno on Protein G Dynabeads, lysate of naive BmN4 cells; non-immune serum or rabbit IgG as control; IP-150 buffer, overnight 4°C; Western blot
T1 sequence: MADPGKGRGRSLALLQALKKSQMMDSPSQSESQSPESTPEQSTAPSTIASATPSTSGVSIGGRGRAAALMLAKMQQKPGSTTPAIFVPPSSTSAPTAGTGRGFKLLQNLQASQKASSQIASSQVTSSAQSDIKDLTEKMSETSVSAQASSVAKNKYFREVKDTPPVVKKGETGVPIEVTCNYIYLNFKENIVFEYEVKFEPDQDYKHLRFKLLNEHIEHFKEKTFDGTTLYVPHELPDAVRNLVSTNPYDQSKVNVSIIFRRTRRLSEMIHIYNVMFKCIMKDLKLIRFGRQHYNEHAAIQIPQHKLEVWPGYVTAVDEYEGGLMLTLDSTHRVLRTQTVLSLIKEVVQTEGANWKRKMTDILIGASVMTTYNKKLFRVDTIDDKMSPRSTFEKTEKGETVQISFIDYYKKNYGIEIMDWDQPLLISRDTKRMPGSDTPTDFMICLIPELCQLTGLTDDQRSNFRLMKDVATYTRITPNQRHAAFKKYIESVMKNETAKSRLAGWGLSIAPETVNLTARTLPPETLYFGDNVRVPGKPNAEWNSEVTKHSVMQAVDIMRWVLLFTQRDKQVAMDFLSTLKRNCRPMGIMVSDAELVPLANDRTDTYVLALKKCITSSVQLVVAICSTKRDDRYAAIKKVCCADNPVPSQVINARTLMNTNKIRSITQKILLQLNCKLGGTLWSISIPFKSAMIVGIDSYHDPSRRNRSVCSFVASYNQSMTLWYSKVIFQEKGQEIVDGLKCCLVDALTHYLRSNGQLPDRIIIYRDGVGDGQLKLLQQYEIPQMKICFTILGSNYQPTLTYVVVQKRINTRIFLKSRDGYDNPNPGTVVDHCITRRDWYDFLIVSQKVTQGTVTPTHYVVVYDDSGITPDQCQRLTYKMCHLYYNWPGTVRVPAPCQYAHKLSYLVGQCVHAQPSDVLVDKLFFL

[2] = target: T2, endogenous Siwi (Bombyx mori (endogenous in BmN4)) (UniProt A8D8P8); test: co-IP; antibodies to endogenous BmAgo3, Siwi or BmVreteno on Protein G Dynabeads, lysate of BmN4 cells stably expressing HA-BmGtsf1L-eGFP; also after dsRNA knock-down of luciferase, BmGtsf1L or BmVreteno; IP-150 buffer, overnight 4°C; Western blot
T2 sequence: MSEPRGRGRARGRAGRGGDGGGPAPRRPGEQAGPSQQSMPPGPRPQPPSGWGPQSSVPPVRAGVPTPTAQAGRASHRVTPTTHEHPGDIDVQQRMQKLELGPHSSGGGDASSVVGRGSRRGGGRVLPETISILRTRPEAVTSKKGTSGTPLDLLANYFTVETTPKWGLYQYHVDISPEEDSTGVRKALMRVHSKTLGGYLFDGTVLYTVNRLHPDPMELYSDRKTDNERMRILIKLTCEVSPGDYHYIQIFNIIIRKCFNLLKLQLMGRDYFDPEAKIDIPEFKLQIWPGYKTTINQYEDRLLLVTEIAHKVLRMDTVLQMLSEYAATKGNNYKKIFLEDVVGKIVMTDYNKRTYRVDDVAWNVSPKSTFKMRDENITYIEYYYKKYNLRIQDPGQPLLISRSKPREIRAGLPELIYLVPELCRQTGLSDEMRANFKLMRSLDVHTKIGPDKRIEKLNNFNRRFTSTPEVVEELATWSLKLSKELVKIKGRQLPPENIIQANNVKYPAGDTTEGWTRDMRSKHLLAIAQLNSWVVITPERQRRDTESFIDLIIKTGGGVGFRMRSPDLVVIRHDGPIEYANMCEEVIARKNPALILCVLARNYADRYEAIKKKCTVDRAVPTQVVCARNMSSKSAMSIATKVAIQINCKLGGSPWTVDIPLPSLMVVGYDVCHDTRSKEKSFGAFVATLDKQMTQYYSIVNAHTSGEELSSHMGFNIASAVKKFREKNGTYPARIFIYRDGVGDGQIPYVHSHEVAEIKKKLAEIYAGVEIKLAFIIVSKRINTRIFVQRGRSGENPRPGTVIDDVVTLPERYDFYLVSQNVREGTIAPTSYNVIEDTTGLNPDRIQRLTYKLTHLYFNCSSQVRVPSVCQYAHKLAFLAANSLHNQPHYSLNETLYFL

[3] = target: T1, endogenous BmAgo3 (Bombyx mori (endogenous in BmN4)); test: as above
[4] = target: T3, full length (FL) BmGtsf1L‐eGFP (Bombyx mori); test: co-IP; GFP or control immunoprecipitation on extracts of FLAG-PIWI stable BmN4 cells co-transfected with BmGtsf1L-eGFP; Western blot
T3 sequence: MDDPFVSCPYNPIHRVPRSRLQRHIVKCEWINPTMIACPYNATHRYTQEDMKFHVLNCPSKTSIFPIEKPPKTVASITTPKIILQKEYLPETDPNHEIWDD

[5] = target: T4, HA‐tagged BmGtsf1L (Bombyx mori); test: co-IP; anti-HA magnetic beads, lysate of BmN4 cells transiently transfected with HA-BmGtsf1L (with FLAG-tagged partners or alone); IP-150 buffer (150 mM KOAc, 0.1% Igepal), overnight 4°C; with or without RNase A/T1; Western blot
T4 sequence: T3 sequence

[6] = target: T5, HA‐BmGtsf1L‐eGFP (Bombyx mori); test: co-IP; GFP-Trap magnetic agarose or control beads, lysate of BmN4 cells stably expressing HA-BmGtsf1L-eGFP; also after dsRNA knock-down of luciferase, BmAgo3 or BmVreteno; IP-150 buffer, overnight 4°C; Western blot
T5 sequence: T3 sequence

- binding [1]: binds
B1: endogenous BmGtsf1L (protein)
chain: T3 sequence

- binding [2]: binds weakly
- binding [3]: binds
B2: HA‐BmGtsf1L‐eGFP (protein)
chain: T3 sequence

- binding [4]: binds
- binding [5]: binds
B3: 3xFLAG‐BmAgo3 (protein, UniProt A9ZSZ2 1-926)
chain: T1 sequence

- binding [5]: binds
B4: FLAG‐tagged Siwi (protein, UniProt A8D8P8 1-899)
chain: T2 sequence

- binding [6]: binds
- binding [1]: binds
- binding [3]: binds
B5: endogenous BmVreteno‐Long (L) isoform (protein)
chain: MSNHSRPQRRREWDPMRDDFNEHTYDVQYADDNAGEQVQLDHTKLYIINIPRGLSEDGIRAAFSKHGKVLSARLSKNPNKRFAIVQFETASEAKLAMMKMNGSEPLNLKISIAHKTIRKTQHDNKDRNYSTSRNGHCSRDEASSISSKGWNMRNLDDVMNNDEIDEIDDMIHEDHDDNLDLELDMLTLKQLKIKEEQLMCKRRLLLRHAEKRQVAPHSSAGRSVLPDGRIVVRNNANETDSAEVEPSFAGAGSESLKTPGLERNASRQCVKCGAPADWYCSRCAITPYCSQTCQTRDWTERHKSVCHYLAPLKTAGGFEAEATSSKSVSNSTPMRSSHSPPTKQQRGEADETDNKAKNIQEPRQNYHRPSNSGPNKNIPGKNQDPRRPATSREAIEEETEERGARNPKPAEATKDKHHPMNPVTFQRRQLKSNPVVDAQPAPREQQQPAATRAPEASPTEQRESTRRTLVPDRCLIDSLSEGDVVLVSVELKASECCTKQGGYVCLSMHEKYESDYQKLCEDYVLDCEADSDEYKIITGDTFSYLSPEDGGWYRARALNTTMAALLDGSKVVYLRMNDKVKKLPAKYSGIPEFCCVLNADVEVGLNLKCSLLSKTPNGFKVTLENVETEANVGEGEITRWIPEVDYPPPVKNVPVQRSVEIPEVPRPEIKNKSRVILVDATDVQRVFVRPADTRSQKAFDNILQDVLLYGTTAEPLKEPPSKGQTVVSKYTDNLHYRALCKRTSVNKNKYLLEYIEYGNIEITQLNRLYPCPEHLSVTSLASLTSHVQLDTTVGELTPRALEYIETIKEEEMILTLSSGGDTAQSGAALVNLTLVKNNDNVNKRIEELCTPEWKKLELKGVDVIETERLMYGTALDYIELPAAPFDLQVLDEVGLDSGNISGCPTNSDYVRYVMTKLPARMREYCESEFGRQPYLPAAEELCIAQLPPSSEWHRAVVLEQILGPGGGTARVLFVDHGNVAEVPVSSLRKMLAEFVTDLPAVACQIVIEDFPKQATAEMLAKARRFMSGPDKARAAQLPVRGCDKQDVGIYAIRVPELLEAMTE
